# Results taken from PubChem BioAssay AID1347120 (National Center for Advancing Translational Sciences (NCATS), 2019).
# About 930 (0.24%) of roughly 390,000 compounds were called active. Inconclusive results, whose numbers are uncertain, are shown with a selection of clear calls. Calls come from the whole dose curve; as a rule, active = well fitted activation curve with a large enough effect; inconclusive = small, poorly fitted or top-dose-only effect; inactive = no such curve, though single readings can be large or run the other way. A potency beside an inconclusive call is a rough fit, not a confirmed value.
# Assay: qHTS for Suppressors of FUS Proteinopathy: Primary screen using FUS-linked yeast assay; note: nearly all actives have a fitted effect of over 55% in size;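 for growth rescue (activation): plate controls were DMSO vehicle for no effect and reference control for full effect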
# Conditions: S. cerevisiae FUS-expressing, OD600, 24 h; Potency: growth rescue; growth rescue (activation): at 76.6 µM (top of the series)
# Method in brief: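 Read-out: OD at 600 nm after 24hr at 30C, reporting rescue of FUS-induced yeast toxicity. Cells at OD 0.005 in galactose (2%) minimal medium; compounds tested in a dilution series; CP55940 titration from 92uM final as control.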
# Potency is the fitted concentration of half-maximal effect; tags give direction and shape of the fitted curve.
SMILES,Potency,growth rescue (activation)
Cc1ccc(-c2nnc(N3CCN(c4ccccn4)CC3)c3ccccc23)cc1,"inconclusive: 35.5 µM [activator, partial curve, poor fit]",–
COCCNC(=O)c1cc2c(c(-c3cccc(-c4cccc(OC)c4)c3)n1)[C@H](CCO)N(S(=O)C(C)(C)C)C2 (some centres undefined),–,inactive: 13.5%
Cc1ccc(NC(=S)c2nc3ccccc3[nH]2)c(C)c1,–,inactive: -11.5%
Cc1[nH]c2ccc(CNS(=O)(=O)c3ccc(S(=O)(=O)N4CCOCC4)cc3)cc2c1C,"inconclusive: 31.6 µM [activator, single point]",–
C[C@@H]1COC(=O)[C@H](CC(=O)OC(C)(C)C)C/C=C\C[C@@H](CC(=O)N(CCO)Cc2ccccc2)C(=O)N1,"inconclusive: 25.1 µM [activator, partial curve, poor fit]",–
CCCCN(C)C(=O)c1cc2cc3ccc(OC)cc3nc2s1,–,inactive: 18.9%
COc1ccc(C(=O)[C@H]2[C@H]3C(=O)N(c4ccccc4)C(=O)[C@H]3C3C=CC=NN32)cc1 (some centres undefined),"inconclusive: 22.4 µM [activator, partial curve, poor fit]",–
Cc1cccc(C(=O)N2CCC(=O)N(C(COCc3cccc(C(F)(F)F)c3)Cc3ccccc3)CC2)c1 (centres undefined),"inconclusive: 15.8 µM [activator, partial curve]",–
COC(=O)c1cccc(COC(=O)c2ccccc2NC(=O)c2ccco2)c1,–,inconclusive: 53.7% [activator]
CCn1c(COc2ccc(C)cc2)nnc1SCc1ccc(C#N)cc1,"inconclusive: 11.2 µM [activator, partial curve]",–
CCN1CCN(CCNC(=O)c2ccc(/C=C3/Sc4ccccc4N(Cc4ccccc4C)C3=O)cc2)CC1,"inconclusive: 39.8 µM [activator, single point]",–
Cc1nn(C)c2c1c(C(F)(F)F)cc(=O)n2CC(=O)N1CCN(c2ccccc2F)CC1,"inconclusive: 28.2 µM [activator, single point]",–
COCc1ccc(-c2c(-c3cccc(OC)c3)sc3ccc(OC)cc23)cc1,–,inactive: -18.1%
O=C(O)CCC(=O)N1CCN(c2nc(-c3ccccc3)c3ccccc3n2)CC1,–,inactive: -11.3%
CCCc1ccc2oc(C(=O)N3CCC(COC)C3)c(C)c2c1 (centres undefined),"inconclusive: 50.1 µM [activator, single point]",–
CCOC(=O)[C@@]12CCCC=C1N(CCc1ccc(Cl)cc1)C(=O)[C@H]2CC(=O)NCc1cccc(C(F)(F)F)c1,"inconclusive: 20 µM [activator, partial curve, poor fit]",–
N#C/C(=N\Nc1ccc(Cl)c(Cl)c1)C(=O)C1CC1,–,inactive: 4.08%
CC(C(=O)NCc1ccc2c(c1)OCO2)N1c2cccc3cccc(c23)S1(=O)=O (centres undefined),–,inactive: 13.6%
COC(=O)CC[C@H](/C=C/C(=O)OC(C)(C)C)Sc1ccc(C(C)(C)C)cc1,–,inactive: 15%
CCOC(=O)CN1C(C(=O)c2ccccc2)=C(OC(=O)c2ccccc2)c2ccccc2S1(=O)=O,"inconclusive: 20 µM [activator, single point]",–
C=CCN(C(=O)CCC(=O)Nc1cc(C)on1)C(C(=O)NC(C)(C)CC)c1cccc(OC)c1OC (centres undefined),"inconclusive: 11.2 µM [activator, partial curve]",–
C=CCNC(=S)N(C)[C@H]1C[C@H]2c3[nH]c4cccc(-c5cccc(F)c5)c4c3CCN2C(=O)[C@H]1[C@H](C)O,"inconclusive: 50.1 µM [activator, single point]",–

SMILES,Potency,growth rescue (activation)
Cc1cc(C)cc(NC(=O)Nc2cccs2)c1,–,inactive: -2.11%
CCN(CC)c1ccc(S(=O)(=O)N2CCCCC2)cc1NC(=O)C1CSC2(C)CCC(=O)N12 (centres undefined),"inconclusive: 22.4 µM [activator, single point]",–
COC(=O)c1cccc(CN2C(=O)SC(Nc3ccc(Br)cc3)C2=O)c1 (centres undefined),"inconclusive: 17.8 µM [activator, partial curve, poor fit]",–
CC(=O)Nc1ccc(NC(=O)c2cc(-c3cc(C)cc(C)c3O)n[nH]2)cc1,–,inactive: 11.4%
COC(=O)[C@]12C[C@H](CC(=O)N3CCN(C(=O)C4CC4)CC3)C(=O)N(CCc3ccc(OC)c(OC)c3)C1=C[C@H](COCc1ccccc1)O[C@@H]2C,"inconclusive: 8.91 µM [activator, full curve, poor fit]",–
Cc1ccc(C(=O)C2CCN(CC(=O)NC(C)C)CC2)cc1,–,inactive: 4.42%
CCN(C(=O)C1CCN(c2nc(-c3ccc(OC)cc3)no2)CC1)c1ccc(OC)cc1,"inconclusive: 31.6 µM [activator, single point]",–
COC(=O)Nc1ccc(OCc2ccccc2)cc1,–,inactive: 25.9%
CCOC(=O)C1(Cc2ccccc2C)CCCN(C(=O)c2ccc(C(C)=O)s2)C1 (centres undefined),–,inactive: 22.8%
CN(C(=O)CSc1nc2ccc(NC(=O)COc3ccccc3Cl)cc2s1)c1ccccc1,–,inactive: 5.53%
C[C@H](CO)N1C[C@H](C)[C@@H](CN(C)C(=O)Nc2ccc(C(F)(F)F)cc2)Oc2c(NC(=O)Nc3ccccc3)cccc2C1=O,"inconclusive: 50.1 µM [activator, single point]",–
CC(=O)Nc1ccc(NS(=O)(=O)c2cc3c4c(c2)CC(=O)N4CCC3)cc1,"inconclusive: 12.6 µM [activator, partial curve, poor fit]",–
O=C(CSCC(=O)N1CCCCC1)OCC(=O)c1c[nH]c2ccccc12,"inconclusive: 39.8 µM [activator, partial curve, poor fit]",–
COc1ccccc1CCn1c(N)cc(=O)[nH]c1=O,–,inactive: -31.4%
CCCCc1cn([C@@H](CCCCNC(=O)OC(C)(C)C)C(=O)N2CCN(C(=O)OC(C)(C)C)CC2)nn1,"inconclusive: 12.6 µM [activator, partial curve]",–
S=C(N/N=C1\CCc2ccccc21)NC1CCCCC1,"inconclusive: 28.2 µM [activator, single point]",–
COc1ccc(NC(=O)CSC2=C(C#N)C(c3ccco3)C(C(=O)Nc3nc4ccccc4s3)=C(C)N2)cc1 (centres undefined),–,inactive: 26.1%
C[C@H]1COC(=O)[C@@H](Cc2ccc(F)cc2)C/C=C\C[C@@H](CC(=O)N[C@@H](CO)Cc2ccccc2)C(=O)N1,"inconclusive: 31.6 µM [activator, single point]",–
N#Cc1c(N(CCO)CCO)nc(N)c2c(N)nc3c(c12)CC(=O)N3Cc1cccs1,"inconclusive: 50.1 µM [activator, single point]",–
Cc1cccc(CSc2nc3c(c(-c4cccs4)c2C#N)CN(C)CC3)c1,–,inactive: 13.3%
CCOC(=O)[C@]12CCCC=C1N(Cc1ccc(OC)cc1)C(=O)[C@@H]2CC(=O)NCc1cccc2ccccc12,–,inactive: 48.6%
CC(C)(C)S(=O)N1Cc2cc(C(=O)NCC(F)(F)F)nc(-c3cccc(-c4cccc(F)c4)c3)c2[C@H]1CCO (some centres undefined),"inconclusive: 31.6 µM [activator, single point]",–

SMILES,Potency,growth rescue (activation)
Nc1cc(C(=O)O)c(N)c2c1C(=O)c1ccccc1C2=O,–,inactive: 29.1%
O=C(c1sc2ccccc2c1Cl)N(Cc1ccco1)C1CCS(=O)(=O)C1 (centres undefined),"inconclusive: 15.8 µM [activator, partial curve, poor fit]",–
COc1ccc(N2CC(C(=O)N/N=C/c3cccs3)CC2=O)cc1 (centres undefined),–,inactive: -11.8%
Cc1ccc(S(=O)(=O)N2CCOCC2)cc1NC(=O)COC(=O)CNC(=O)c1ccc(C(C)(C)C)cc1,"inconclusive: 28.2 µM [activator, single point]",–
COc1ccc(OC)c(-c2cc(C(=O)N3CCOCC3)no2)c1,–,inactive: -5.34%
Cc1ccccc1NC(=O)CC1SC(=O)N(c2ccccc2)C1=O (centres undefined),"inconclusive: 35.5 µM [activator, single point]",–
Cc1oc2c(c1C(=O)Nc1ccc(C(=O)O)cc1)CCCC2,–,inactive: 25.1%
CCCCn1nnnc1C(c1cc2ccccc2o1)N(CCN(C)C)Cc1ccccc1 (centres undefined),–,inactive: 15.7%
O=C(NCc1nnc(SCc2ccccc2)n1-c1ccc(F)cc1)C12CC3CC(CC(C3)C1)C2,"inconclusive: 20 µM [activator, single point]",–
Cn1cnc([N+](=O)[O-])c1S(=O)(=O)Oc1cccc2ccccc12,–,inactive: 13.8%
S=C(NCCc1ccccc1)Nc1ccccc1Cl,–,inactive: -8.06%
O=C(COc1ccccc1F)Nc1ccc(Cl)c(-c2nc3ccccc3[nH]2)c1,"inconclusive: 44.7 µM [activator, single point]",–
COc1cccc(OC)c1OCc1cc(C2C3CCCC=C3C(C#N)=C(N)C2(C#N)C#N)c(C)cc1C (centres undefined),"inconclusive: 31.6 µM [activator, single point]",–
COc1ccc(-c2noc(CCC(=O)N3CCN(c4cccc(C(F)(F)F)c4)CC3)n2)cc1,"inconclusive: 15.8 µM [activator, partial curve]",–
Cc1ccc(C(=O)N2N=C(c3ccc(NS(C)(=O)=O)cc3)CC2c2cccs2)cc1 (centres undefined),"inconclusive: 28.2 µM [activator, partial curve, poor fit]",–
CCS(=O)c1ccccc1C(=O)OCC(=O)Nc1cccc(S(=O)(=O)N2CCCCC2)c1 (centres undefined),"inconclusive: 35.5 µM [activator, single point]",–
COc1ccc(CNS(=O)(=O)c2cc(-c3cc(C)no3)ccc2C(C)C)cc1,"inconclusive: 35.5 µM [activator, single point]",–
C=CCC[C@@H](Cc1ccc(F)cc1)C(=O)OC[C@@H](Cc1c[nH]c2ccccc12)NC(=O)[C@@H](CC=C)CC(=O)N(CCO)Cc1ccccc1,"inconclusive: 12.6 µM [activator, partial curve, poor fit]",–
Cc1cccc(NC(=O)CSCC(=O)N(C)CCOc2ccc(Cl)cc2)c1,–,inactive: 36.5%
O=C(Nc1ccccc1Cl)O/N=C/c1ccncc1,–,inactive: -2.46%
